From the supplement of paper PMC3334620
In all, about 33,000 sequences were measured (“E-score (-0.5 to 0.5)”: median about -0.035, highest 2% from about 0.35 on). The list shows a part of the results.

These sequences were tested against T1, Pdr3 (UniProt P33200) (assay: PBM E-score (8-mer binding enrichment) (E-score (-0.5 to 0.5)); higher = stronger / more preferred TF binding; most listed sequences are background and not binding sites). Settings: protein concentration: 200 nM; construct: GST-full length.
T1 sequence: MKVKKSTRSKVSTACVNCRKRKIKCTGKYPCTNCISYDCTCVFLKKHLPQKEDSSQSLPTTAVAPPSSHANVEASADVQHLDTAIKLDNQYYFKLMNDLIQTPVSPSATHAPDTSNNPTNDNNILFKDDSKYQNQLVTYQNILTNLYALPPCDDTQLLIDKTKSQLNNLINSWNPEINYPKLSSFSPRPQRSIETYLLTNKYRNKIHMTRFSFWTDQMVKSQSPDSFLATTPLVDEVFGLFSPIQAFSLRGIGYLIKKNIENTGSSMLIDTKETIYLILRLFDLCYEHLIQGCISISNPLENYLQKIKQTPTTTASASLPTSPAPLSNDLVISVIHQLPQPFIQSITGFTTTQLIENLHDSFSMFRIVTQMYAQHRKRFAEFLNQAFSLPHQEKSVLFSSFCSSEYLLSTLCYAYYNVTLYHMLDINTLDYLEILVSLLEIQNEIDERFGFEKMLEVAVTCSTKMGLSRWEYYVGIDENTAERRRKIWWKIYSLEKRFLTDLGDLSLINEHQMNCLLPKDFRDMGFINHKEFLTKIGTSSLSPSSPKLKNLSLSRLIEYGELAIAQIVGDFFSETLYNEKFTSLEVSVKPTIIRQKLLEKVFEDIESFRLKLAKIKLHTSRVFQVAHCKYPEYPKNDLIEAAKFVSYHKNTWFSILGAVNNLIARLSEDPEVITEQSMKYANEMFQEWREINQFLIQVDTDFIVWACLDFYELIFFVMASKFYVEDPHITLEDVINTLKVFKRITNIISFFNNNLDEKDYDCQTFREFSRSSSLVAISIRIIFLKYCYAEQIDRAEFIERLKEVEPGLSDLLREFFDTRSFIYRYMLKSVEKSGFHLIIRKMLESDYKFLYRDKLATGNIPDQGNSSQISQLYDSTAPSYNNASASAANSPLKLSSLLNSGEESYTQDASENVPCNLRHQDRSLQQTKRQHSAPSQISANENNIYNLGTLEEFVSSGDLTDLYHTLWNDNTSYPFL
How it was run: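 E-scores (a modified Wilcoxon-Mann-Whitney statistic) were assigned by the Universal PBM Analysis Suite to every ungapped eight-base word pooled with its reverse complement. The input came from universal all-10-mer Agilent arrays made double-stranded by primer extension and probed with GST-tagged yeast transcription factors at about 100-200 nM. Fluorescent anti-GST detected bound protein, and masliner normalised the scans.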

| Sequence | PBM E-score |
| --- | --- |
| GAAGTGGC | 0.0291 |
| ATGTTCAC | -0.034 |
| AGGCGCTG | 0.0991 |
| CCGACATC | 0.15 |
| CTCTTCAG | -0.243 |
| CATGCTCC | -0.0366 |
| AGTGCGGG | 0.185 |
| AGAACAGA | 0.00211 |
| CTTTTGAC | -0.222 |
| CGACCAAG | -0.138 |
| TGGAAAAA | 0.0433 |
| AGTACTAG | -0.0196 |
| TATCCGCA | 0.335 |
| GAGAATCA | -0.0676 |
| ATTCCAGA | 0.0594 |
| CATGGGGA | -0.121 |
| GATGTCAA | -0.133 |
| TATATATA | 0.334 |
| ATGCATGG | 0.159 |
| AGGGAATA | 0.12 |
| CGTTATTA | 0.128 |
| ACAAGGAC | -0.214 |
| CTCGTCTC | 0.00964 |
| AGACCTCC | -0.0942 |
| ACGTACGC | -0.331 |

| Sequence | PBM E-score |
| --- | --- |
| CAAGCATC | -0.0853 |
| ATCTGGTA | -0.0522 |
| GTAAGTTA | -0.0961 |
| ATTATGAC | -0.0247 |
| CGGGACCC | 0.339 |
| CTTGAGGA | -0.0818 |
| CTTTGTTA | -0.0164 |
| CACGCTCG | -0.0963 |
| AGCGCCCC | 0.0307 |
| ACCCGTCA | 0.146 |
| AGTGCAAA | 0.019 |
| GTGAGCAC | -0.135 |
| CAGGTGCA | 0.0121 |
| CAACATAA | 0.0957 |
| CAAATCGG | 0.257 |
| AATGGGAC | -0.15 |
| CACGATCG | 0.068 |
| GTCGTCCA | -0.0251 |
| ACATATGA | -0.107 |
| AGGGTTAG | -0.221 |
| CGGACTCC | 0.329 |
| AAGACCGG | 0.0295 |
| CCTCAGGC | -0.0418 |
| CGATAAAA | 0.0668 |
| ACCCTTAC | -0.202 |

| Sequence | PBM E-score |
| --- | --- |
| AACCTTGC | -0.117 |
| CTTTCAAC | -0.118 |
| AAATACAC | -0.0617 |
| CAACTGCA | -0.0308 |
| CACGTCTG | -0.0891 |
| CAGCTAGG | -0.228 |
| ACGTCACA | -0.134 |
| CGATATAG | 0.0721 |
| CGGTGAAC | 0.0516 |
| GGGCGACC | 0.0233 |
| GCGGAACA | 0.474 |
| AACCTAAA | -0.0113 |
| AGATGATA | 0.1 |
| AGGTACGA | -0.0844 |
| GAAGCCAC | -0.00782 |
| AAACAGCT | -0.0116 |
| GAAGCAGA | -0.165 |
| GATGAATA | 0.13 |
| CACACTTC | 0.0829 |
| CATTGCCG | 0.118 |
| AGTAGACA | -0.115 |
| CCCGTCAA | 0.125 |
| CCTTGACA | -0.209 |
| CTTTTTGA | -0.207 |
| ACATATCT | 0.0252 |

| Sequence | PBM E-score |
| --- | --- |
| ACTTAGCC | -0.18 |
| CGCTGTTA | -0.112 |
| AATGTGTG | 0.0121 |
| AGTGGGTG | 0.125 |
| AACCCTGG | -0.182 |
| ATTGTGTA | -0.0751 |
| AGAGTCAG | -0.136 |
| AGCAGGAG | -0.0581 |
| GTGTCGAA | -0.147 |
| AACAAAGG | 0.0254 |
| CCGACTTA | 0.247 |
| CCACCACA | -0.00907 |
| CTATTCCC | 0.0883 |
| ATTGGGAA | -0.0305 |
| TGCTTTAA | -0.0637 |
| GACGTTCA | -0.166 |
| GCGGCCCA | 0.167 |
| CTACATTC | -0.136 |
| GGAAAACC | 0.182 |
| GCCCGTCA | 0.138 |
| CATCCATC | -0.14 |
| GCGTCGAC | 0.0956 |
| GTTCTTGA | -0.166 |
| CCCTTACA | -0.124 |
| CCGAGTGC | 0.266 |

| Sequence | PBM E-score |
| --- | --- |
| AATCCTGA | -0.0393 |
| CATGTTCA | -0.146 |
| ATTAGTAA | 0.0892 |
| ATCGTTCG | 0.033 |
| GAGCCCTA | -0.0956 |
| CACGAATC | -0.0137 |
| CGTATACA | -0.0682 |
| CACTTCTG | -0.146 |
| CATTTTTA | -0.0675 |
| AGCTGCTA | -0.176 |
| CACTAATC | 0.192 |
| GCTACGAC | 0.0127 |
| TAGAGCCA | -0.316 |
| CATGAGTC | -0.101 |
| AATGAATC | -0.113 |
| CTGGAAAC | -0.0196 |
| GCTACACA | -0.266 |
| AACGACTC | -0.272 |
| CAGCGCGC | 0.163 |
| ACCGGCAG | 0.133 |
| ACCCGGTG | 0.203 |
| CAAATGGC | -0.156 |
| ACGATGAA | -0.0151 |
| CGTTGGAC | -0.181 |
| AAAGAAGA | -0.0922 |

| Sequence | PBM E-score |
| --- | --- |
| ACGGTGGC | 0.0177 |
| CCGGTATC | 0.213 |
| AACGCAGG | -0.0195 |
| GACTTGGA | 0.0029 |
| CGACGAAA | -0.0191 |
| CGGTCTGC | 0.0736 |
| AATTCCAT | 0.156 |
| ATTGTCCC | 0.146 |
| GATAACCC | 0.0582 |
| CATAACAC | -0.167 |
| CACCATAG | -0.144 |
| CCAACCTA | -0.132 |
| GGCCAAAA | 0.0915 |
| AGATGCGG | 0.237 |
| ACCGTAGA | -0.0364 |
| AACCACCG | -0.0124 |
| ACGCGGAA | 0.407 |
| CTATCGAA | -0.171 |
| GTACTTCA | 0.102 |
| AGCACTCA | -0.127 |
| GACATTTA | -0.244 |
| CATCATCA | -0.0881 |
| AAGGGCGG | 0.129 |
| CGTACACG | -0.145 |
| CATGCAAA | 0.0294 |

| Sequence | PBM E-score |
| --- | --- |
| CATCTCAG | -0.0334 |
| ACGACACC | 0.0551 |
| CAGCTGCG | 0.0791 |
| ATACCCAT | -0.02 |
| CTTTGTAC | -0.22 |
| AACACGTG | -0.0283 |
| ACTGCCAG | -0.0263 |
| GGTCTTAA | -0.251 |
| CTAGGCCA | -0.0772 |
| TCTTGAAA | -0.0175 |
| CATGACAA | -0.0984 |
| GAGAATAC | 0.0471 |
| CCGCATGA | 0.00928 |
| CCCCGTCC | 0.0739 |
| AAGCCGCG | 0.301 |
| CAGCCAGG | -0.24 |
| ACGCCATA | -0.0937 |
| CCTCTAGC | -0.247 |
| ACACTACT | -0.131 |
| CGAATCCC | 0.236 |
| AAATTCAA | -0.0203 |
| CATCCTAA | -0.107 |
